The whole screen tested about 310,000 compounds, of which about 14,000 (4.5%) showed an effect of 50% or more. The effect is printed as a negative number. This is one part of the list.
target: human ether-à-go-go-related gene (hERG) potassium channel (human, UniProt Q12809); assay: primary screen, population patch clamp on CHO cells stably expressing hERG
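Further: peak tail current of the secondary pulse compared with the same well before compound.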

human ether-à-go-go-related gene (hERG) potassium channel, sequence (Q12809 whole entry, looked up): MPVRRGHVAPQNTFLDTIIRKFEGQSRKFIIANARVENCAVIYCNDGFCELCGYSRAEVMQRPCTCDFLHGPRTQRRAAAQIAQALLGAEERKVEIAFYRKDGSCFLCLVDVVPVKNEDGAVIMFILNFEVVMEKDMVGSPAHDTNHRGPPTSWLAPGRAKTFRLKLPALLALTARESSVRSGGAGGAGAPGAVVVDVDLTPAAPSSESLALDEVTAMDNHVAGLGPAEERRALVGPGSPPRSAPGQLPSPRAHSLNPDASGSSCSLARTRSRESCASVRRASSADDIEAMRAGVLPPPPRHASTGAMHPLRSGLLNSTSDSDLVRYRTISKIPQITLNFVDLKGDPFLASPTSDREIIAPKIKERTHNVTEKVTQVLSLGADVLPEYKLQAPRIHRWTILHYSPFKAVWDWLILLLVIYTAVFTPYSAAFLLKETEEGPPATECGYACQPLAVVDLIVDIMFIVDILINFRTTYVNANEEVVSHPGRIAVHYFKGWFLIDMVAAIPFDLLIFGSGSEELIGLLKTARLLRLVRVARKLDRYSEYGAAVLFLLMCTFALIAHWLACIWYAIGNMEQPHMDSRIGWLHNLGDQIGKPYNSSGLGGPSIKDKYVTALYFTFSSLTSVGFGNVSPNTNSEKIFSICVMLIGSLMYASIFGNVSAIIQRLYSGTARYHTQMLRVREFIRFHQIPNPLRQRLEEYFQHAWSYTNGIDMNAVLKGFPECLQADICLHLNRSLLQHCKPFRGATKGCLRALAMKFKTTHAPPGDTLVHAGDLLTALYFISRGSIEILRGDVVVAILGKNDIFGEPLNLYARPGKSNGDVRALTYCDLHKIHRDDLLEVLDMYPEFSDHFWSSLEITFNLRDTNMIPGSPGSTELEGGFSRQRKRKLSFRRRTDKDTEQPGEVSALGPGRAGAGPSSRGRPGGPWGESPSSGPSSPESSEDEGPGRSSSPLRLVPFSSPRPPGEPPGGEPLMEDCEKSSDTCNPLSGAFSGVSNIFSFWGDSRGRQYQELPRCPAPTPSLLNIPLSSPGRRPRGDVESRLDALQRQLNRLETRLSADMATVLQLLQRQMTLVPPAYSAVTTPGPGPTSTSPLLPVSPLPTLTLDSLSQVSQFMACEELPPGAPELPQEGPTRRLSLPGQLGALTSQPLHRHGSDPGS

Row | SMILES | hERG current change (%, negative = inhibition) at 10uM
1 | O=C(Nc1ccc(S(=O)(=O)N2CCCC2)cc1)c1cccs1 | 67.1%
2 | O=C(NC1CCCCC1)/C(=N\O)c1ccccn1 | 18%
3 | COc1ccc(S(=O)(=O)NC2CCCC2)cc1Cl | -7.32%
4 | C=CCOc1ccc(C(=O)Nc2ncn[nH]2)cc1 | 23.5%
5 | CC(C)c1cc(-c2cc(C(=O)NCc3ccccc3)on2)nc(NC2CCCC2)n1 | 3.5%
6 | CCNC(=S)N(CCc1c(C)[nH]c2ccc(C)cc12)Cc1cccnc1 | -8.61%
7 | Cc1cc(C)cc(Oc2coc3cc(O)ccc3c2=O)c1 | -4.46%
8 | C/C(CC(=O)Nc1ccc(OCc2ccccc2)cc1)=N\NC(=O)C(=O)Nc1cccc(C)c1 | 21.8%
9 | C=CCn1c(SCc2ccc(Cl)c(Cl)c2)nnc1C(CO)NC(=O)c1ccc(OC)cc1 (stereo not drawn) | -34%
10 | O=C1CCc2cc(S(=O)(=O)NCCC(=O)N3CCN(c4cccc(Cl)c4)CC3)ccc2N1 | -41%
11 | Cc1cccc(N2CCN(C(=O)C3(S(=O)(=O)c4ccc(Cl)cc4)CC3)CC2)c1C | -6.74%
12 | COC(=O)c1c(NC(=O)Cc2ccccc2)sc2c1CC(C)(C)NC2(C)C | -11.1%
13 | OCC1(CCc2ccccc2)CCN(Cc2ccccc2Cl)CC1 | -86%
14 | Cc1ccc(NC(=O)CN(C)C(=O)COC(=O)CNS(=O)(=O)c2ccc(F)c(F)c2F)cc1 | -23.8%
15 | C=CCOC(=O)C1=C(C)NC(SCC(=O)OCC)=C(C#N)C1c1ccc(C)cc1 (stereo not drawn) | -10.9%
16 | COc1ccc(N(C(=O)c2snc(C(N)=O)c2N)C(C(=O)NC2CCCC2)c2cccs2)c(OC)c1 (stereo not drawn) | -21.1%
17 | O=C(CN1C(=O)/C(=C/c2ccco2)SC1=S)NC1CCS(=O)(=O)C1 (stereo not drawn) | 2.47%
18 | Cc1ccc2[nH]c3c(=S)nc[nH]c3c2c1 | 18.9%
19 | S=C(NCCN1CCOCC1)Nc1ccc(Cl)c(Cl)c1 | -10.5%

Row | SMILES | hERG current change (%, negative = inhibition) at 10uM
20 | COc1ccc(N2CCN(C(=S)NCCc3ccccc3)CC2)cc1 | -5.71%
21 | O=C(CNc1ccccc1)NN=C1CCCC1 | 25.9%
22 | Cc1cc(Cl)ccc1OCCCC(=O)Nc1cccnc1 | -20.7%
23 | CCc1nnc(NC(=O)CCc2ccc(C)o2)s1 | 1.71%
24 | Cc1ccc(OCCn2cccc2/C=C2/C(=O)NC(=O)N(Cc3ccco3)C2=O)cc1 | -0.631%
25 | CC(=O)Nc1ccc2nc(-c3cccnc3)[nH]c2c1 | 3.5%
26 | CCOC(=O)c1cn(CC)c2ccc(S(=O)(=O)N3CC(C)CC(C)C3)cc2c1=O (stereo not drawn) | -21.7%
27 | COCCNC(=O)c1cccc(Nc2nc(-c3ccccc3)c3cc(Cl)ccc3n2)c1 | 7.86%
28 | O=C(NCC1CCCO1)NC12CC3CC(CC(C3)C1)C2 (stereo not drawn) | 11.6%
29 | c1ccc(CCn2c(C3CC3)nc3ccccc32)cc1 | -35.3%
30 | O=S(=O)(Nc1ccc(-c2ccc3nncn3n2)cc1)c1ccccc1Cl | 5.08%
31 | Cc1ccc(-c2ocnc2C(=O)Nc2nc(C)cs2)cc1 | 8.54%
32 | COc1ccc(C(=O)Nc2ncc(C)s2)cc1S(=O)(=O)N1CCOCC1 | -56.2%
33 | CN(Cc1ccccc1)S(=O)(=O)c1ccc(Cl)c(C(=O)NCc2cccnc2)c1 | -32.8%
34 | CCCC(=O)Nc1c2c(nn1-c1cccc(Cl)c1)CS(=O)(=O)C2 | -53.4%
35 | CC(C)(CNC(=O)CNC(=O)C1CCCCC1)N1CCOCC1 | 7.72%
36 | COc1ccc(N2CC(C(=O)Nc3ccccc3C(=O)NCc3ccco3)CC2=O)cc1 (stereo not drawn) | -42%
37 | COc1ccc(C(=O)NCc2ccccc2CN2CCCC2)cc1S(=O)(=O)Nc1ccc(C)cc1 | -57.9%
38 | Cc1ccc(-c2nc(-c3ccccn3)no2)cc1Cl | -0.62%

Row | SMILES | hERG current change (%, negative = inhibition) at 10uM
39 | O=C(CNC(=O)c1cccc(OC(F)F)c1)Nc1ccc(Cl)cc1 | -6%
40 | O=C1NCN(c2ccccc2)C12CCN(c1nnnn1-c1ccccc1)CC2 | -11.7%
41 | COc1ccc(-n2c(SCC(=O)N3CCN(c4ccccc4)CC3)nc3c(c2=O)SCC3)cc1 | -70%
42 | COc1ccccc1-n1cnnc1SC(C)C(=O)NCC1CCCO1 (stereo not drawn) | -3.85%
43 | CN(C)CCCN(C(=O)c1ccc2c(c1)OCCO2)c1nc2ccc(Cl)cc2s1.Cl | -39.9%
44 | Cn1c(=O)[nH]c(=O)c2c1nc(SCC(N)=O)n2Cc1cccc(Br)c1 | -8.92%
45 | Cc1ccc(C(=O)Nc2cccc(S(=O)(=O)N3CCCC3)c2)o1 | -9.98%
46 | O=C(c1ccccc1)N1CC(COc2ccccc2)OC(c2cccnc2)O1 (stereo not drawn) | -5.14%
47 | Cc1cc(C)nc(NS(=O)(=O)c2ccc(N3C(=O)c4ccccc4C3=O)cc2)n1 | 0.252%
48 | O=C(c1ccccc1)n1ccn(-c2ccccc2)c1=S | -14.9%
49 | CC(C)c1cc(N=NC(N)=O)cc(C(C)C)c1O | 2.84%
50 | CC1CCc2cc(F)ccc2N1C(=O)CSc1nnc(-c2cccs2)n1C (stereo not drawn) | -22.6%
51 | NC(=O)c1c(-c2ccccc2)oc2ccc(O)cc12 | -2.61%
52 | O=C(N/N=C/c1cccs1)c1cccs1 | 12.8%
53 | COc1cc2c(cc1NC(=O)COc1ccc3ccccc3c1)oc1ccccc12 | 20.2%
54 | N/C(=N\OC(=O)C1CCCCC1)c1ccccn1 | 8.36%
55 | NC(=O)COC(=O)CC(c1ccccc1)c1ccccc1 | 4.16%
56 | Cc1c([N+](=O)[O-])nnn1-c1cc(Cl)cc(Cl)c1 | 2.72%
57 | C/C(=N\N1C(=O)c2ccccc2NC1c1ccccc1)c1ccccc1O (stereo not drawn) | 29.6%

Source: paper PMC4336329 (PLoS ONE, 2015)
